In the supplement of paper PMC11417369:
Some of the results follow.

system: PfSIP2 AP2 domain 1 (GST-tagged); assay: gcPBM binding intensity (ln(normalized median fluorescence intensity)); higher = stronger DNA binding
Method in brief: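 An Agilent 4 × 180k array carrying primer-extended double-stranded 36-bp intergenic genomic probes and negative controls received GST-tagged P. falciparum DNA-binding domains expressed in E. coli, about 25 μg on average, for 1 h. The binding buffer contained 1× PBS, 1% milk, 0.2 mg/ml BSA, 0.5% salmon testes DNA and 0.03% Triton X-100. Binding intensity is the top Masliner-normalised natural-log median intensity across replicate spots of either probe orientation, read after Alexa488 anti-GST antibody staining and a 488 nm scan.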

Sequence	gcPBM binding intensity (ln)
GTTTTTATCATATCATGTACGTATTTTATTTTTTTT [XGTACX_site8643]	7.21
ATCAAAGATAAATTTACACACATATAAATATAAATA [CACACA_site7409]	6.88
GAAAAGTATAAAAAACGTACAAGTTTTATTTTCACA [XGTACX_site4604]	6.89
CCCCTATAAATAGGGTGTACTAATAAATATTTTTAA [XGTACX_site1244]	7.33
ACGGGCGACACATAAGTGCGCAAAAAAAAAAAAATA [GTGCAC_site9688]	8.29
TAAAATAAAAAGTTTACACACATATATAACTTTAAT [CACACA_site6456]	6.77
AAAATACAGAAACACACACACACACCCATATATATA [CACACA_site3559]	7.39
TTTTATAAAACATGTAGTACATGAAAAAAAAAATTT [XGTACX_site1626]	7.61
GTATTCATTCCTTGAGTGCAATTGCAATAAATAAAA	9.21
CATATTAAGATGTGTACACATTTTTATTTTTTTTTT [CACACA_site4425]	6.97
AAATGACGAAATAAAATCATAAATTAAAATAAATAA [CACACA_negctrl_site655]	6.57
ATAGCATTTCACAAATGTACATAAAAAAATAAAAAT [XGTACX_site402]	7.21
TAAAACAAAATGGTAACACACACATATATATATATA [CACACA_site8590]	9.23
AATATATAAATATATATAAATAAATATATATATAAA [CACACA_negctrl_site49]	6.68
AAATGGAAATTAATATGTACATATTTATAAGTATGA [XGTACX_site1774]	7.1
TCCTATCATTTATATTTTACTACATAATATTGATAA [GTGCAC_negctrl_site286]	7.32
ATGTTTCTATAGATTTGTACATATTTCATATGAATA [XGTACX_site1053]	7.13
TTATTTTTTGTATGAACACACAACTTAATTATGATG [CACACA_site2448]	7
TCTTTTCTTTTGTGTGTGCACATATAAGCATGAAAC [GTGCAC_site9910]	9.66
TTTTACAAATATTTCTGTACACATTCTCATATAATT [XGTACX_site1974]	7.16
TTTTTTAATTAATTACCTTTGAATGTGTATTAGGAC [GTGCAC_negctrl_site651]	7.26
AATAATATATTATATGCATGTGTATAATTTGATATA [TGCATGCA_site1058]	7.17

Sequence	gcPBM binding intensity (ln)
TTTGGTTATTTGACCTGTACACATTTAATTATTTTT [XGTACX_site5170]	7.02
CAAAGGAAATGGTGTACACAATTTTTCCTTTTTCGT [CACACA_site4800]	6.9
ATTATGAATTTAAGACGTACAAAAAATTTTTATTCA [XGTACX_site5682]	7.16
ACAAGTATTCCTTTTGCACACCTTTCTGCACCTTAT [CACACA_site3873]	11.7
AAATACTTATTCGTGGTGCAACAATTTTAAAAATTA	9.9
ATTAAAATAATACGTACACACATGTATAATACATAT [CACACA_site1005]	7.52
TATTACATAATATATGTACACACGCAAATACTTATA [CACACA_site7994]	7.08
TAACAACGATACAATTGTACAAATTATATATATATA [XGTACX_site4687]	9.17
CAAAAAAAGTTATACACACACACACGGATATAAATA [CACACA_site6619]	6.97
AGCAAGACGGGGTGCACACAAACTAATATGCCGAAT [CACACA_site159]	12.1
AATATAATATACATATGTACATATATATATATATAT [XGTACX_site8218]	9.4
TATAACACACAATGATGTACATTACATTATTTTTTA [XGTACX_site2076]	7.06
TTTTCTATATAACAACGTACATTTATTATATTATAA [XGTACX_site6148]	7.2
ATATATATATATATGTGTACATATTTTTTTGAAGTG [XGTACX_site248]	9.61
TAATATAAATGAAAGGTGCTTTTGCTTTCTTTTTTT	7.08
AAAAAAAAAAAAAATACACACACACCGATATATATA [CACACA_site8142]	7.33
ATACATATAATAATATGTACATATAATTATATATAT [XGTACX_site913]	7.39
TAATATATTTTTAACATGCACTGTATTTTAATATAT	9.48
TCTGGATTGGATTACAAGAAAATAAAATATAAAATA [CACACA_negctrl_site122]	7.06
TATACAAATATATATGCACACACATATATGTATATG [CACACA_site9007]	7.36
TATAAAACAAATATATGTACATATCATAGTATAATA [XGTACX_site2965]	7.09
TAATTAAAGTTATCTACACACCTTTATAGATATATA [CACACA_site7778]	6.7
